Data taken from paper PMC10200994.

Target: STAT3 (unphosphorylated, wild-type), fluorophore fusion (UniProt P40763)
Assay: co-localization assay (relocalisation of a test protein by a compartment-targeted bait, fluorescence microscopy); HeLa cells co-expressing bait (STAT-NES or STAT-NLS, or wild-type STAT2 with its own export activity; green) and test protein without heterologous signal (red); no cytokine; fixed 20 h after transfection; Pearson correlation coefficient rP in cells with equimolar to 4-fold excess of bait

Pearson correlation coefficient rP (co-localization): > 0.94
Substance: STAT3 (unphosphorylated, wild-type), fluorophore fusion (a stretch of the chain, sequence left out) (natural protein; other documents disagree on this pair)
